Results taken from the RNAGym collection of RNA variant scans (doi:10.7554/elife.90254).
The source gives no read counts; variants with many changes may rest on few reads.

B1: LINE1-mini (parent)
chain: GGCAGAGCUCAACACAGCGUGGCAAAGUGGCUGUGGCUAGACUGCC

Variants of: B1
Test: self-cleavage, relative activity (ratio to wild type); higher = more cleavage; in vitro, sequencing; the parent is a self-cleaving ribozyme
Work on G17U U20A A25U yielded a self-cleavage of 0.04.
With A16U U32G C37A G40C the self-cleavage was 0.02.
G17C U32C G36A G40A gave a self-cleavage of 0.08.
With G17A U20G A41C G44A the self-cleavage was 0.03.
Variant G17C A24U A41G has a self-cleavage of 0.06.
In the case of G17C A41C U43A, the self-cleavage is reported as 0.
Variant C18A A25U G30C A41G has a self-cleavage of 0.02.
Variant G17C G19A C23U A25U has a self-cleavage of 0.41.
G17U C18A C23A C31G gave a self-cleavage of 0.3.
Work on G17C G19U G21A yielded a self-cleavage of 0.11.
G17A U32A G33C showed a self-cleavage of 0.01.
G17U G21U U28C showed a self-cleavage of 0.55.
A16U C31U G35U G36C G44A gave a self-cleavage of 0.02.
With G17A A24U U38G the self-cleavage was 0.01.
For C18A G19U A39U, the self-cleavage was 0.13.
With C18A G22U C31U C37U C45G the self-cleavage was 1.28.
For G17C G27C C37A A41G, the self-cleavage was 0.01.
For G17A G29U U34C, the self-cleavage was 0.01.
Work on G17A G19U A26U G36C A39C yielded a self-cleavage of 0.03.
G17U G29U U34C gave a self-cleavage of 0.05.
In the case of G17A A26C A39U C45G, the self-cleavage is reported as 0.02.
For G17A G22U C37U, the self-cleavage was 0.04.
Work on G17C C23A C31A yielded a self-cleavage of 0.28.
G17U G21U U34A G40A U43C gave a self-cleavage of 0.02.
In the case of G17A G22C G27C, the self-cleavage is reported as 0.04.
G17A G27U A41U gave a self-cleavage of 0.01.
With G17C G19A U38A the self-cleavage was 0.34.
G17A G21A A41U showed a self-cleavage of 0.07.
Variant A16U G17U U34G G35C U43G C45U has a self-cleavage of 0.
G17U C31U C45U showed a self-cleavage of 0.17.
G17U G19C G27A gave a self-cleavage of 1.95.
Work on G17U G35A G40U yielded a self-cleavage of 0.02.
C18A G19C C31A A39U C42G gave a self-cleavage of 0.02.
For G17A G30C C46G, the self-cleavage was 0.86.
For A16U G19U U28G, the self-cleavage was 1.59.
Variant A16U G22C A39C C42A has a self-cleavage of 0.4.
Variant G17C C31G G35C has a self-cleavage of 0.04.
In the case of G17U G35U A39G, the self-cleavage is reported as 0.02.
With G17A G21U A26C the self-cleavage was 0.18.
A16U C37U U38A showed a self-cleavage of 0.07.
A16U G27A C42A C45U gave a self-cleavage of 0.06.
For G17U G36A C42G, the self-cleavage was 0.04.
For G17C G21U C46U, the self-cleavage was 0.51.
Work on C18A G19A U43A yielded a self-cleavage of 0.03.
In the case of A16U G30C U43C C45G, the self-cleavage is reported as 0.08.
G17A G22A U38C showed a self-cleavage of 0.67.
G17U A39C G40A C42G showed a self-cleavage of 0.22.
In the case of G17A G27C U38C G40C, the self-cleavage is reported as 0.06.
G17U A39G G44A gave a self-cleavage of 0.
A16U U20G C37A U38A C46G gave a self-cleavage of 0.01.
Work on A16U G35U U43G yielded a self-cleavage of 0.04.
For A16U C31A U32C, the self-cleavage was 0.05.
G17A G21C G27A A39U gave a self-cleavage of 1.28.
G17U U20G C23G U28C showed a self-cleavage of 0.05.
For G17U C18U C23U G29C C42U, the self-cleavage was 0.05.
With G17A A39C C46U the self-cleavage was 0.12.
Work on C18A A25G G30U U32A yielded a self-cleavage of 0.09.
Work on G17A U34G C45G yielded a self-cleavage of 0.03.
Variant G17C A24G A39G has a self-cleavage of 0.09.
G17C A26U G30C G40A gave a self-cleavage of 0.1.
Work on G17U C23G G29C yielded a self-cleavage of 0.89.
In the case of C18A A25C C31A G33C, the self-cleavage is reported as 0.05.
With C18A C23A G35A C37G the self-cleavage was 0.05.
C18A A25U C31U gave a self-cleavage of 0.01.
Variant A16U G17C C18U C46G has a self-cleavage of 0.03.
G17C G30U U38A gave a self-cleavage of 0.07.
Variant G17C G19U G30U has a self-cleavage of 0.12.
In the case of G17C C23G G27A, the self-cleavage is reported as 0.16.
With G17A U34A G40A the self-cleavage was 0.01.
With G17A C42G C46U the self-cleavage was 0.03.
G17C G22C C46A gave a self-cleavage of 0.31.
A16U G30U G33U showed a self-cleavage of 0.02.
Variant G17A G21U G33C has a self-cleavage of 0.1.
C18A G30U G35U gave a self-cleavage of 0.04.
For G17A G27A U28C G40U A41U, the self-cleavage was 0.01.
For A16U G19U U28C C31G A39G, the self-cleavage was 0.04.
Work on G17A U20A A25G U32C U43C C45A yielded a self-cleavage of 0.01.
Work on G17C C23U A39U yielded a self-cleavage of 0.56.
Variant G17A G35A C42U has a self-cleavage of 0.14.
For G17U A24G C31G, the self-cleavage was 0.46.
Work on G17U A26U G30C yielded a self-cleavage of 0.84.
Work on C18A C23A G27C C31U U43G yielded a self-cleavage of 0.
In the case of G17A A39C A41C C46A, the self-cleavage is reported as 0.03.
For G17A C18U G30A C37G C45A, the self-cleavage was 0.03.
Work on G17U U20G G35U C45U yielded a self-cleavage of 0.01.
Work on G17A G44C C45U yielded a self-cleavage of 0.04.
Variant G17U A24C G29C has a self-cleavage of 0.04.
For G17A G21U G30C G44C, the self-cleavage was 0.03.
In the case of G17U C42G C45A, the self-cleavage is reported as 0.02.
Work on G17A G29C U32C yielded a self-cleavage of 0.03.
In the case of G17U C18U A25C, the self-cleavage is reported as 0.07.
G17A G19U G22U gave a self-cleavage of 0.23.
G17C C18A G27U G30C G35C C37U showed a self-cleavage of 0.07.
Work on C18A A24G G27U U28G C31A G33C yielded a self-cleavage of 0.01.
G17C C23U G29U G33U A41U gave a self-cleavage of 0.02.
For G17C A24G U43C C46G, the self-cleavage was 0.01.
G17U C18U A41G showed a self-cleavage of 0.01.
With C18A A26U C31G U34A A39C the self-cleavage was 0.08.
G17U C18A A26C gave a self-cleavage of 0.47.
C18A A26G G33U C45U gave a self-cleavage of 0.05.
Work on G17U G21U G40U C42A C45A yielded a self-cleavage of 0.06.
In the case of G17C U20C G29U C31U U38A, the self-cleavage is reported as 0.17.
In the case of G17C A26G C31A G40A, the self-cleavage is reported as 0.02.
With C18A A24G U32G the self-cleavage was 0.13.
In the case of A16U G30U C42U C45G, the self-cleavage is reported as 0.03.
G17A G21C A25C G27A G33A showed a self-cleavage of 0.17.
G17C C23A G27A gave a self-cleavage of 1.42.
For G17C A24G C31U G35A G40A, the self-cleavage was 0.01.
Variant G17C G21C G30A U32G G33U has a self-cleavage of 0.01.
A16U U28A G35A G36A U38A G40C gave a self-cleavage of 0.04.
G17U U20A A25U G27U G30U gave a self-cleavage of 0.21.
In the case of G17A A25G A26C G30C, the self-cleavage is reported as 0.05.
In the case of G17C C23U U38C, the self-cleavage is reported as 0.05.
With G17A G27U G35C C42U the self-cleavage was 0.03.
G17A U28A C46A showed a self-cleavage of 0.15.
Work on G17A G27C U34C C37A yielded a self-cleavage of 0.01.
With G17C G35A A39C G44C the self-cleavage was 0.02.
In the case of C18A G29A C42G, the self-cleavage is reported as 0.03.
G17A A24U G44A C45G gave a self-cleavage of 0.
C18A A26U G27A U32A C45U gave a self-cleavage of 0.03.
With C18A G22A G35U the self-cleavage was 0.48.
G17C G21C C23G A26G U38A showed a self-cleavage of 0.39.
In the case of G17A G27U U28G C45A, the self-cleavage is reported as 0.07.
G17U G21C G27U C46A showed a self-cleavage of 0.17.
With G17U G19U A25U the self-cleavage was 0.34.
Work on G17A C23U C46A yielded a self-cleavage of 0.06.
For G17C G27U G30U U38G, the self-cleavage was 0.02.
C18A A24C A26U C46U showed a self-cleavage of 0.1.
A16U G17C C45U C46A gave a self-cleavage of 0.07.
With C18A A24U C31A G36U the self-cleavage was 0.03.
Work on C18A C37G C42G yielded a self-cleavage of 0.02.
For A16U C31U G36A C46U, the self-cleavage was 0.03.
Work on G17U U34G C37G A41U yielded a self-cleavage of 0.01.
Work on G17U C37G G44A yielded a self-cleavage of 0.17.
With G17U G19C G30U G44A C45A the self-cleavage was 0.04.
Variant G17C G30U G40U C42U has a self-cleavage of 0.1.
For C18A G29A U34C G44U, the self-cleavage was 0.05.
In the case of C18A G21U A41G C45U C46A, the self-cleavage is reported as 0.03.
A16U U20G G44U C45U showed a self-cleavage of 0.06.
With G17U C31G C42A the self-cleavage was 0.08.
A16U G17A U38A G44U gave a self-cleavage of 0.01.
Work on G17A G22A G30A C42U U43G yielded a self-cleavage of 0.03.
Work on A16U U20C C42G yielded a self-cleavage of 0.03.
With A16U G17U G35U G36U the self-cleavage was 0.
With G17A G21C G22C C31G the self-cleavage was 0.04.
G17C G21C U28C gave a self-cleavage of 0.2.
Variant G17U A25G G35U has a self-cleavage of 0.02.
For C18A A26U U32C G36C, the self-cleavage was 0.02.
In the case of G17U A24U G27A, the self-cleavage is reported as 0.21.
Variant C18A G22A C45G has a self-cleavage of 0.08.
In the case of G17A U28A C31U A39C, the self-cleavage is reported as 0.03.
Work on A16U U20A C45A yielded a self-cleavage of 0.04.
Variant G17C U20C A26C G30C C37A has a self-cleavage of 0.02.
C18A G19A G36U C37U gave a self-cleavage of 0.03.
For G17U G27C C46A, the self-cleavage was 0.22.
Work on G17U G21A C23A G44U yielded a self-cleavage of 0.01.
With G17U U20G C42U the self-cleavage was 0.01.
Variant A16U G29U A41U C46G has a self-cleavage of 0.12.
G17U U34G C37U showed a self-cleavage of 0.04.
With A16U C45U C46G the self-cleavage was 0.
For A16U G17A U43C, the self-cleavage was 0.03.
Work on C18A G21A G35A C37U yielded a self-cleavage of 0.02.
For G17A U20G G30C, the self-cleavage was 0.03.
Variant G17A C18U C23A C42U C45A has a self-cleavage of 0.07.
For G17A G19C G33A, the self-cleavage was 0.06.
For G17C C37A C45U C46A, the self-cleavage was 0.06.
Variant A16U G21A G22A G33A G40A C45A has a self-cleavage of 0.
